Structures can show the parent of a compound that is named as a salt. The list shows a part of the results. Many values rest on one well or one pass, so single values are uncertain.
Experiments:
[1] = test system: H9 teratoma-derived LAM model cells, TSC2-/-; assay: percent SyTOX+ dead cells; higher = more cytotoxic; details: 5 µM, treatment time 72 h, culture: 3D hyaluronic acid hydrogel
[2] = test system: H9 teratoma-derived LAM model cells, WT; assay: percent SyTOX+ dead cells; higher = more cytotoxic; details: 5 µM, treatment time 72 h, culture: 3D hyaluronic acid hydrogel, genotype: WT
[3] = test system: H9 teratoma-derived LAM model cells, TSC2-/-; assay: percent of cells invaded past median invasion distance of vehicle control; LAM is lymphangioleiomyomatosis; the cells come from teratomas of the human stem cell line H9; higher = more invasion; extreme values may be limits of the assay; details: 5 µM, treatment time 72 h, culture: 3D hyaluronic acid hydrogel
[4] = test system: H9 teratoma-derived LAM model cells, WT; assay: as above; details: 5 µM, treatment time 72 h, culture: 3D hyaluronic acid hydrogel, genotype: WT
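Throughout, for percent SyTOX+ dead cells: cells seeded atop a hyaluronic acid gel crosslinked via MMP-cleavable peptides, containing vitronectin peptides and methylcellulose, imaged live by high-content microscopy with automated analysis, one technical replicate per compound.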
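Throughout, for percent of cells invaded past median invasion distance of vehicle control: live cells imaged by high content microscopy and scored with in-house automated image analysis, one technical replicate per compound in each genotype and rapamycin condition.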

| SMILES | percent SyTOX+ dead cells ([1]; rapamycin 0 nM) | percent SyTOX+ dead cells ([1]; rapamycin 20 nM) | percent SyTOX+ dead cells ([2]; rapamycin 0 nM) | percent SyTOX+ dead cells ([2]; rapamycin 20 nM) | percent ([3]; rapamycin 0 nM) | percent ([3]; rapamycin 20 nM) | percent ([4]; rapamycin 0 nM) | percent ([4]; rapamycin 20 nM) |
| --- | --- | --- | --- | --- | --- | --- | --- | --- |
| Nc1ccccc1NC(=O)c1ccc(CNc2nccc(-c3cccnc3)n2)cc1 [MGCD0103, MGCD-0103, MG-0103, Mocetinostat] | 39.8% | 32.5% | 32.2% | 27.1% | 9.14% | 9.64% | 0% | 12.4% |
| Cc1cccc(-c2nn3c(c2-c2ccnc4ccc(C(N)=O)cc24)CCC3)n1 | 62.1% | 55.9% | 68.5% | 82.2% | 0% | 18.8% | 0% | 5.02% |
| OCCn1cc(-c2ccc3c(c2)CC/C3=N\O)c(-c2ccncc2)n1 | 12.2% | 11.9% | 16.4% | 11.5% | 20.5% | 34.7% | 18.8% | 35.4% |
| CC(=O)Nc1ccc([C@H](C)C(=O)Nc2ncc(C(C)C)s2)cc1 | 46.7% | 23.8% | 54.3% | 43.2% | 5.13% | 23.8% | 1.64% | 7.2% |
| CC(NC(=O)Cc1cc(F)cc(F)c1)C(=O)NC(C(=O)OC(C)(C)C)c1ccccc1 (configuration not stated) | 10.9% | 6.12% | 11% | 13.7% | 54.3% | 32.1% | 32.4% | 44% |
| CN(C)/N=N/c1[nH]cnc1C(N)=O | 16.7% | 14.4% | 16.4% | 14.1% | 33.6% | 37.1% | 54.5% | 43.8% |
| COc1ccc(COc2ccc(Cc3cnc(N)nc3N)cc2OC)cc1 | 7.1% | 9.83% | 26.9% | 16.2% | 65% | 35.3% | 5.13% | 34.2% |
| CN(C)C(=S)NN=C(c1ccccn1)c1ccccn1 | 14.3% | 22% | 37.1% | 30.1% | 12.6% | 16% | 5.91% | 10.2% |
| O=C(/C=C/c1ccc(O)c(O)c1)OCCc1ccccc1 [Caffeic acid phenethyl ester, CAPE] | 14.7% | 8.21% | 15.2% | 17.7% | 5.08% | 3.59% | 9.09% | 12.1% |
| CCN(CC)CCOC(=O)c1ccc(N)cc1 [Procaine hydrochloride] | 13.2% | 8.17% | 8% | 13.4% | 39% | 35% | 15.6% | 22.6% |
| CC(C)(C)c1cnc(CSc2cnc(NC(=O)C3CCNCC3)s2)o1 | 54.8% | 33.6% | 45.9% | 26.6% | 31.1% | 69.5% | 3.82% | 26.1% |
| CCN(CC)CCCCNc1ncc2cc(-c3cc(OC)cc(OC)c3)c(NC(=O)NC(C)(C)C)nc2n1 | 15.1% | 11.3% | 10.4% | 17.8% | 58.6% | 42.7% | 12.6% | 22.4% |
| Cc1[nH]c(/C=C2\C(=O)Nc3ccc(S(=O)(=O)Cc4c(Cl)cccc4Cl)cc32)c(C)c1C(=O)N1CCC[C@@H]1CN1CCCC1 | 98.9% | 99.5% | 98.9% | 98.5% | 24.5% | 7.21% | 23.3% | 8.29% |
| Cc1cc(Nc2cc(N3CCN(C)CC3)nc(Sc3ccc(NC(=O)C4CC4)cc3)n2)n[nH]1 [VX-680, MK-0457, Tozasertib, VX6] | 16.4% | 13.8% | 13.6% | 8.91% | 7.87% | 46% | 1.81% | 3.47% |
| Brc1c(Br)c(Br)c2n[nH]nc2c1Br | 13.4% | 23.8% | 15.2% | 12.3% | 19.5% | 11.4% | 32.4% | 27.9% |
| Fc1ccc(-c2nc3n(c2-c2ccncc2)CCS3)cc1 | 5.46% | 11.1% | 14.2% | 11.6% | 45.7% | 29.9% | 12.9% | 17.8% |
| Oc1cccc(-c2nc(N3CCOCC3)c3sccc3n2)c1 [PI3-Kinase a Inhibitor 2] | 16.4% | 8.67% | 31% | 29.9% | 18.4% | 45.1% | 12.7% | 21.7% |
| NS(=O)(=O)OCC1CC(n2ccc3c(NC4CCc5ccccc54)ncnc32)CC1O (configuration not stated) [MLN-4924, Pevonedistat] | 10.4% | 11.1% | 15.6% | 11.5% | 46% | 33.2% | 26.4% | 21.1% |
| CN1CCc2c(c3ccccc3n2Cc2ccc(C(=O)NO)cc2)C1 [Tubastatin A (trifluoroacetate salt)] | 25.7% | 37.2% | 28.6% | 30.1% | 28.3% | 9.3% | 25.8% | 30.7% |
| O=C1NC(=O)/C(=C/c2ccc(-c3ccc(F)cc3O)o2)S1 | 45.7% | 24.6% | 25.1% | 28.9% | 11% | 5.03% | 14.2% | 8.59% |
| Cc1cc(-c2ccc(CC(=O)Nc3ccc(-c4cccnc4)cc3)cc2)ccn1 | 4.48% | 4.81% | 6.35% | 12.4% | 38.3% | 25.4% | 12.7% | 15.5% |
| COc1cc2c(NC3CCN(C)CC3)nc(N3CCCN(C)CC3)nc2cc1OCCCN(C)C | 19.8% | 24.4% | 17.6% | 21.3% | 16.9% | 5.43% | 30.8% | 17.3% |

| SMILES | percent SyTOX+ dead cells ([1]; rapamycin 0 nM) | percent SyTOX+ dead cells ([1]; rapamycin 20 nM) | percent SyTOX+ dead cells ([2]; rapamycin 0 nM) | percent SyTOX+ dead cells ([2]; rapamycin 20 nM) | percent ([3]; rapamycin 0 nM) | percent ([3]; rapamycin 20 nM) | percent ([4]; rapamycin 0 nM) | percent ([4]; rapamycin 20 nM) |
| --- | --- | --- | --- | --- | --- | --- | --- | --- |
| CC(=O)SCC(=O)c1ccc(NS(=O)(=O)c2ccc(OCCCN(C)C)cc2)nc1 | 11.8% | 9.39% | 10.8% | 11.8% | 63% | 43.3% | 49.1% | 28.3% |
| CCOc1cc(/C=C(\C#N)C(N)=O)cc(CSc2ccccc2)c1O | 8.39% | 3.32% | 9.9% | 5.53% | 71% | 99% | 38% | 79.7% |
| FC(F)(F)c1ccc(/C=C/c2nc(COc3ccc(CCCCn4ccnn4)cc3)co2)cc1 | 7.73% | 22.6% | 11% | 30.8% | 38.6% | 37.9% | 7.33% | 20.8% |
| COc1ccc(CCC(=O)Nc2nc3ccc(Cl)cc3s2)cc1OC | 19.2% | 19.7% | 22.1% | 19.6% | 57.2% | 35.8% | 27.9% | 18.9% |
| Cc1cc(C(=O)N2CCN(c3cccc(Cl)c3)CC2)n(-c2ccccc2)n1 | 25% | 41.6% | 30.9% | 26.2% | 0% | 10.1% | 0% | 10% |
| O=C1Cc2c([nH]c3ccc([N+](=O)[O-])cc23)-c2ccccc2N1 [Alsterpaullone] | 27.1% | 27.8% | 29.5% | 21.1% | 8.42% | 13.4% | 7.37% | 3.85% |
| CNC(=O)c1ccc(N2C(=S)N(c3ccc(C#N)c(C(F)(F)F)c3)C(=O)C2(C)C)cc1F | 7.08% | 12.9% | 6.67% | 17.6% | 66.8% | 22.4% | 48.4% | 48.4% |
| Cc1ccc(C(=O)Nc2cccc(C(F)(F)F)c2)cc1Nc1nc(-c2cccnc2)nc2c1cnn2C | 7.41% | 3.41% | 14.5% | 10% | 55.9% | 49.7% | 77.7% | 54% |
| CS(=O)(=O)c1cc(F)cc2c3c(n(Cc4ccc(Cl)cc4)c12)[C@@H](CC(=O)O)CC3 | 6.87% | 3.38% | 5.56% | 8.41% | 45.7% | 45.1% | 38.5% | 37.4% |
| Cc1cc(Nc2ncc3c(n2)N(C)C(=O)N(c2cc(NC(=O)c4cccc(C(F)(F)F)c4)ccc2C)C3)n(C)n1 [SC-1, Pluripotin] | 65.9% | 63.4% | 88% | 82.4% | 0.59% | 0% | 0% | 0% |
| CN1C(=O)C(Cc2c[nH]c3ccccc23)NC1=S (configuration not stated) [Necrostatin-1] | 16.8% | 22.4% | 28.7% | 20.3% | 47.4% | 6.03% | 0.93% | 2.9% |
| CC[C@H](CO)Nc1nc(NCc2ccccc2)c2ncn(C(C)C)c2n1 [Roscovitine, CYC202, Seliciclib] | 5.19% | 7.27% | 12.4% | 10.6% | 53.7% | 29.1% | 35.2% | 23.2% |
| Cc1ccc(F)c(NC(=O)Nc2ccc(-c3cccc4[nH]nc(N)c34)cc2)c1 | 24.3% | 9.68% | 25.2% | 9.79% | 15% | 36.9% | 14.6% | 31.8% |
| CN1CCN(CCOc2cc(OC3CCOCC3)c3c(Nc4c(Cl)ccc5c4OCO5)ncnc3c2)CC1 | 9.43% | 28% | 33.3% | 46.3% | 0% | 0% | 4.76% | 1.05% |
| C[C@]12C=CC(=O)C=C1CC[C@@H]1[C@@H]2[C@@H](O)C[C@@]2(C)[C@H]1CC[C@]2(O)C(=O)CO [Prednisolone; Prelone] | 12.8% | 11.4% | 8.74% | 12.7% | 64.3% | 47.8% | 55.7% | 44.1% |
| CCN1/C(=C/C(C)=O)Sc2ccc(OC)cc21 | 4.38% | 5.22% | 6.87% | 6.58% | 50.6% | 99.6% | 31.8% | 81.2% |
| COc1cc(Nc2ncc(F)c(Nc3ccc4c(n3)NC(=O)C(C)(C)O4)n2)cc(OC)c1OC | 55.9% | 41.2% | 56.2% | 51.2% | 7.09% | 22.1% | 10.9% | 0.48% |
| COC(=O)CNC(=O)C(=O)OC [DMOG, Dimethyloxallyl Glycine] | 6.61% | 7.62% | 7.74% | 1.52% | 88.5% | 34.1% | 49% | 50.5% |
| COCC[n+]1c2c(n(Cc3cnccn3)c1C)C(=O)c1ccccc1C2=O [YM-155, YM155, Sepantronium bromide] | 66.9% | 65.6% | 65.7% | 33.3% | 23.8% | 7.29% | 4.04% | 0% |
| COc1cc(N2CCC(N3CCN(C)CC3)CC2)ccc1Nc1ncc(Cl)c(Nc2ccccc2S(=O)(=O)C(C)C)n1 | 25.8% | 39.7% | 75.2% | 75.4% | 0% | 17.2% | 0% | 0% |
| Cn1c2ccccc2c2c3c(c4c5ccccc5n(CCC#N)c4c21)CNC3=O | 13.8% | 24.5% | 31.8% | 23.9% | 23.4% | 8.51% | 1.18% | 2.75% |
| COc1ccc(-c2ccc3c(N4CCOCC4)nc(N4C[C@@H](C)O[C@@H](C)C4)nc3n2)cc1CO | 12.1% | 6.94% | 21.3% | 16.7% | 19.9% | 26.1% | 13% | 31% |

Source: the supplement of paper PMC10502849
